{
  "source": "the supplement of paper PMC8728848",
  "binders": {"B1": {"name": "LecB LY19 (Pseudomonas aeruginosa) (protein)", "chain": "MATQGVFTLPANTQFGVTAFANSAGTQTVNVQVNNETVATFTGQSTNNGIIGSKVLNSGGGGKVQILVSVNGRSSDLVSAQVILANELNFALVGSEDSTDNDYNDAVVVINWPLG"}},
  "assay_in_all_cases": "glycan array binding signal (z-score within array); higher = stronger binding",
  "conditions_in_all_cases": "glycan notation: IUPAC condensed, linker removed",
  "key": {"[1]": {"biological_target": "Neu5Ac(a2-6)Gal(b1-4)GlcNAc(b1-6)[Gal(b1-3)]GalNAc", "summary_of_the_method": "(§1)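 Glycan array data were curated from 3228 arrays in the Consortium for Functional Glycomics database and kept only where the protein sequence was available. Glycan names were converted to IUPAC-condensed notation, and columns mapping to the same glycan were averaged. The binding signal is a within-array Z-score, averaged across arrays of the same protein sequence at different concentrations or buffers and across linkers. Negative Z-scores can be read as non-binding.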"}, "[2]": {"biological_target": "Neu5Ac(a2-6)Gal(b1-4)GlcNAc6S", "summary_of_the_method": "as §1"}, "[3]": {"biological_target": "Neu5Ac(a2-6)GalNAc", "summary_of_the_method": "as §1"}, "[4]": {"biological_target": "Neu5Ac(a2-6)GalNAc(b1-4)GlcNAc", "summary_of_the_method": "as §1"}, "[5]": {"biological_target": "Neu5Ac(a2-6)GalNAc(b1-4)GlcNAc6S", "summary_of_the_method": "as §1"}, "[6]": {"biological_target": "Neu5Ac(a2-6)GlcNAc(b1-4)GlcNAc", "summary_of_the_method": "as §1"}, "[7]": {"biological_target": "Neu5Ac(a2-6)GlcNAc(b1-4)GlcNAc(b1-4)GlcNAc", "summary_of_the_method": "as §1"}, "[8]": {"biological_target": "Neu5Ac(a2-8)Neu5Ac", "summary_of_the_method": "as §1"}, "[9]": {"biological_target": "Neu5Ac(a2-8)Neu5Ac(a2-3)Gal(b1-3)GalNAc(b1-4)[Neu5Ac(a2-3)]Gal(b1-4)Glc", "summary_of_the_method": "as §1"}, "[10]": {"biological_target": "Neu5Ac(a2-8)Neu5Ac(a2-3)Gal(b1-3)GalNAc(b1-4)[Neu5Ac(a2-8)Neu5Ac(a2-3)]Gal(b1-4)Glc", "summary_of_the_method": "as §1"}, "[11]": {"biological_target": "Neu5Ac(a2-8)Neu5Ac(a2-3)Gal(b1-4)Glc", "summary_of_the_method": "as §1"}, "[12]": {"biological_target": "Neu5Ac(a2-8)Neu5Ac(a2-3)Gal(b1-4)GlcNAc", "summary_of_the_method": "as §1"}, "[13]": {"biological_target": "Neu5Ac(a2-8)Neu5Ac(a2-3)[Gal(b1-3)GalNAc(b1-4)]Gal(b1-4)Glc", "summary_of_the_method": "as §1"}, "[14]": {"biological_target": "Neu5Ac(a2-8)Neu5Ac(a2-3)[GalNAc(b1-4)]Gal(b1-4)Glc", "summary_of_the_method": "as §1"}, "[15]": {"biological_target": "Neu5Ac(a2-8)Neu5Ac(a2-8)Neu5Ac", "summary_of_the_method": "as §1"}, "[16]": {"biological_target": "Neu5Ac(a2-8)Neu5Ac(a2-8)Neu5Ac(a2-3)Gal(b1-4)Glc", "summary_of_the_method": "as §1"}, "[17]": {"biological_target": "Neu5Ac(a2-8)Neu5Ac(a2-8)Neu5Ac(a2-3)[Gal(b1-3)GalNAc(b1-4)]Gal(b1-4)Glc", "summary_of_the_method": "as §1"}, "[18]": {"biological_target": "Neu5Ac(a2-8)Neu5Ac(a2-8)Neu5Ac(a2-3)[GalNAc(b1-4)]Gal(b1-4)Glc", "summary_of_the_method": "as §1"}, "[19]": {"biological_target": "Neu5Ac(a2-8)Neu5Ac(a2-8)Neu5Ac(a2-8)Neu5Ac(a2-3)[GalNAc(b1-4)]Gal(b1-4)Glc", "summary_of_the_method": "as §1"}, "[20]": {"biological_target": "Neu5Ac(a2-8)Neu5Gc(a2-3)Gal(b1-4)GlcNAc", "summary_of_the_method": "as §1"}, "[21]": {"biological_target": "Neu5Ac(b2-6)Gal(b1-4)GlcNAc", "summary_of_the_method": "as §1"}, "[22]": {"biological_target": "Neu5Ac(b2-6)GalNAc", "summary_of_the_method": "as §1"}, "[23]": {"biological_target": "Neu5Ac9Ac(a2-3)Gal(b1-3)GlcNAc", "summary_of_the_method": "as §1"}, "[24]": {"biological_target": "Neu5Ac9Ac(a2-3)Gal(b1-4)GlcNAc", "summary_of_the_method": "as §1"}, "[25]": {"biological_target": "Neu5Ac9Ac(a2-6)Gal(b1-4)GlcNAc", "summary_of_the_method": "as §1"}, "[26]": {"biological_target": "Neu5Gc(a2-3)Gal(b1-3)GlcNAc", "summary_of_the_method": "as §1"}, "[27]": {"biological_target": "Neu5Gc(a2-3)Gal(b1-3)[Fuc(a1-4)]GlcNAc", "summary_of_the_method": "as §1"}, "[28]": {"biological_target": "Neu5Gc(a2-3)Gal(b1-4)Glc", "summary_of_the_method": "as §1"}, "[29]": {"biological_target": "Neu5Gc(a2-3)Gal(b1-4)GlcNAc", "summary_of_the_method": "as §1"}, "[30]": {"biological_target": "Neu5Gc(a2-3)Gal(b1-4)GlcNAc(b1-3)Gal(b1-4)GlcNAc(b1-2)Man(a1-3)[Neu5Gc(a2-3)Gal(b1-4)GlcNAc(b1-3)Gal(b1-4)GlcNAc(b1-2)Man(a1-6)]Man(b1-4)GlcNAc(b1-4)GlcNAc", "summary_of_the_method": "as §1"}, "[31]": {"biological_target": "Neu5Gc(a2-3)Gal(b1-4)[Fuc(a1-3)]GlcNAc", "summary_of_the_method": "as §1"}, "[32]": {"biological_target": "Neu5Gc(a2-6)Gal(b1-4)GlcNAc", "summary_of_the_method": "as §1"}, "[33]": {"biological_target": "Neu5Gc(a2-6)GalNAc", "summary_of_the_method": "as §1"}, "[34]": {"biological_target": "Neu5Gc(a2-8)Neu5Ac(a2-3)Gal(b1-4)GlcNAc", "summary_of_the_method": "as §1"}, "[35]": {"biological_target": "Neu5Gc(a2-8)Neu5Gc(a2-3)Gal(b1-4)GlcNAc", "summary_of_the_method": "as §1"}, "[36]": {"biological_target": "Neu5Gc(a2-8)Neu5Gc(a2-3)Gal(b1-4)GlcNAc(b1-3)Gal(b1-4)GlcNAc", "summary_of_the_method": "as §1"}, "[37]": {"biological_target": "Neu5Gc(a2-8)Neu5Gc(a2-6)Gal(b1-4)GlcNAc", "summary_of_the_method": "as §1"}, "[38]": {"biological_target": "Neu5Gc(b2-6)Gal(b1-4)GlcNAc", "summary_of_the_method": "as §1"}},
  "note": "This is one part of the list.",
  "data": [
    {"binder": "B1", "values": [
      {"measurement": "glycan array binding signal (z-score)", "setting": "[1]", "value": -0.545},
      {"measurement": "glycan array binding signal (z-score)", "setting": "[2]", "value": -0.548},
      {"measurement": "glycan array binding signal (z-score)", "setting": "[3]", "value": -0.553},
      {"measurement": "glycan array binding signal (z-score)", "setting": "[4]", "value": -0.55},
      {"measurement": "glycan array binding signal (z-score)", "setting": "[5]", "value": -0.384},
      {"measurement": "glycan array binding signal (z-score)", "setting": "[6]", "value": -0.542},
      {"measurement": "glycan array binding signal (z-score)", "setting": "[7]", "value": -0.436},
      {"measurement": "glycan array binding signal (z-score)", "setting": "[8]", "value": -0.55},
      {"measurement": "glycan array binding signal (z-score)", "setting": "[9]", "value": -0.554},
      {"measurement": "glycan array binding signal (z-score)", "setting": "[10]", "value": -0.551},
      {"measurement": "glycan array binding signal (z-score)", "setting": "[11]", "value": -0.547},
      {"measurement": "glycan array binding signal (z-score)", "setting": "[12]", "value": -0.557},
      {"measurement": "glycan array binding signal (z-score)", "setting": "[13]", "value": -0.551},
      {"measurement": "glycan array binding signal (z-score)", "setting": "[14]", "value": -0.537},
      {"measurement": "glycan array binding signal (z-score)", "setting": "[15]", "value": -0.555},
      {"measurement": "glycan array binding signal (z-score)", "setting": "[16]", "value": -0.551},
      {"measurement": "glycan array binding signal (z-score)", "setting": "[17]", "value": -0.549},
      {"measurement": "glycan array binding signal (z-score)", "setting": "[18]", "value": -0.546},
      {"measurement": "glycan array binding signal (z-score)", "setting": "[19]", "value": -0.551},
      {"measurement": "glycan array binding signal (z-score)", "setting": "[20]", "value": -0.555},
      {"measurement": "glycan array binding signal (z-score)", "setting": "[21]", "value": -0.528},
      {"measurement": "glycan array binding signal (z-score)", "setting": "[22]", "value": -0.563},
      {"measurement": "glycan array binding signal (z-score)", "setting": "[23]", "value": -0.555},
      {"measurement": "glycan array binding signal (z-score)", "setting": "[24]", "value": -0.553},
      {"measurement": "glycan array binding signal (z-score)", "setting": "[25]", "value": -0.526},
      {"measurement": "glycan array binding signal (z-score)", "setting": "[26]", "value": -0.509},
      {"measurement": "glycan array binding signal (z-score)", "setting": "[27]", "value": -0.353},
      {"measurement": "glycan array binding signal (z-score)", "setting": "[28]", "value": -0.511},
      {"measurement": "glycan array binding signal (z-score)", "setting": "[29]", "value": -0.537},
      {"measurement": "glycan array binding signal (z-score)", "setting": "[30]", "value": -0.506},
      {"measurement": "glycan array binding signal (z-score)", "setting": "[31]", "value": 0.661},
      {"measurement": "glycan array binding signal (z-score)", "setting": "[32]", "value": -0.551},
      {"measurement": "glycan array binding signal (z-score)", "setting": "[33]", "value": -0.552},
      {"measurement": "glycan array binding signal (z-score)", "setting": "[34]", "value": -0.554},
      {"measurement": "glycan array binding signal (z-score)", "setting": "[35]", "value": -0.553},
      {"measurement": "glycan array binding signal (z-score)", "setting": "[36]", "value": -0.556},
      {"measurement": "glycan array binding signal (z-score)", "setting": "[37]", "value": -0.541},
      {"measurement": "glycan array binding signal (z-score)", "setting": "[38]", "value": -0.556}
    ]}
  ]
}
